# Some of the results follow.
# B1: MUB40 (Lactobacillus reuteri) (peptide)
# chain: CTAEGIKKFEGDGYELFKDNFPAGEKFDNDDTNDQFYTVIF
# Key:
# Assay in all cases: glycan array binding signal (z-score within array); higher = stronger binding
# Details in all cases: glycan notation: IUPAC condensed, linker removed
# Gal(a1-3)Gal(b1-4)GlcNAc = target: Gal(a1-3)Gal(b1-4)GlcNAc
# In short: (§1)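 Glycan array data came from 3228 arrays in the Consortium for Functional Glycomics database, and only arrays with an available protein sequence were kept. Glycan names were put into IUPAC-condensed notation, and columns mapping to the same glycan were averaged. The binding signal is a within-array Z-score, averaged across arrays of one protein sequence run at different concentrations or buffers and across linkers. A negative Z-score can be read as non-binding.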
# [1] = target: Gal(a1-3)Gal(b1-4)GlcNAc(b1-2)Man
# In short: as §1
# [2] = target: Gal(a1-3)Gal(b1-4)GlcNAc(b1-2)Man(a1-3)[Gal(a1-3)Gal(b1-4)GlcNAc(b1-2)Man(a1-6)]Man(b1-4)GlcNAc(b1-4)GlcNAc
# In short: as §1
# [3] = target: Gal(a1-3)Gal(b1-4)GlcNAc(b1-3)GalNAc
# In short: as §1
# [4] = target: Gal(a1-3)Gal(b1-4)GlcNAc(b1-6)GalNAc
# In short: as §1
# [5] = target: Gal(a1-3)Gal(b1-4)[Fuc(a1-3)]GlcNAc
# In short: as §1
# [6] = target: Gal(a1-3)Gal(b1-4)[Fuc(a1-3)]GlcNAc(b1-2)Man(a1-3)[Gal(a1-3)Gal(b1-4)[Fuc(a1-3)]GlcNAc(b1-2)Man(a1-6)]Man(b1-4)GlcNAc(b1-4)GlcNAc
# In short: as §1
# Gal(a1-3)GalNAc = target: Gal(a1-3)GalNAc
# In short: as §1
# [7] = target: Gal(a1-3)[Gal(a1-4)]Gal(b1-4)GlcNAc
# In short: as §1
# [8] = target: Gal(a1-4)Gal(b1-3)GlcNAc(b1-2)Man(a1-3)[Gal(a1-4)Gal(b1-3)GlcNAc(b1-2)Man(a1-6)]Man(b1-4)GlcNAc(b1-4)GlcNAc
# In short: as §1
# Gal(a1-4)Gal(b1-4)Glc = target: Gal(a1-4)Gal(b1-4)Glc
# In short: as §1
# Gal(a1-4)Gal(b1-4)GlcNAc = target: Gal(a1-4)Gal(b1-4)GlcNAc
# In short: as §1
# [9] = target: Gal(a1-4)Gal(b1-4)GlcNAc(b1-2)Man(a1-3)[Gal(a1-4)Gal(b1-4)GlcNAc(b1-2)Man(a1-6)]Man(b1-4)GlcNAc(b1-4)GlcNAc
# In short: as §1
# [10] = target: Gal(a1-4)Gal(b1-4)GlcNAc(b1-3)Gal(b1-4)Glc
# In short: as §1
# Gal(a1-4)GlcNAc = target: Gal(a1-4)GlcNAc
# In short: as §1
# Gal(a1-6)Glc = target: Gal(a1-6)Glc
# In short: as §1
# Gal(b1-2)Gal = target: Gal(b1-2)Gal
# In short: as §1
# Gal(b1-3)Gal = target: Gal(b1-3)Gal
# In short: as §1
# Gal(b1-3)Gal(b1-4)GlcNAc = target: Gal(b1-3)Gal(b1-4)GlcNAc
# In short: as §1
# Gal(b1-3)GalNAc = target: Gal(b1-3)GalNAc
# In short: as §1
# [11] = target: Gal(b1-3)GalNAc(a1-3)[Fuc(a1-2)]Gal(b1-4)Glc
# In short: as §1
# [12] = target: Gal(b1-3)GalNAc(a1-3)[Fuc(a1-2)]Gal(b1-4)GlcNAc
# In short: as §1
# Gal(b1-3)GalNAc(b1-3)Gal = target: Gal(b1-3)GalNAc(b1-3)Gal
# In short: as §1
# [13] = target: Gal(b1-3)GalNAc(b1-3)Gal(a1-4)Gal(b1-4)Glc
# In short: as §1
# [14] = target: Gal(b1-3)GalNAc(b1-4)Gal(b1-4)Glc
# In short: as §1
# [15] = target: Gal(b1-3)GalNAc(b1-4)[Neu5Ac(a2-3)]Gal(b1-4)Glc
# In short: as §1
# Gal(b1-3)GlcNAc = target: Gal(b1-3)GlcNAc
# In short: as §1
# [16] = target: Gal(b1-3)GlcNAc(a1-3)Gal(b1-4)GlcNAc
# In short: as §1
# [17] = target: Gal(b1-3)GlcNAc(a1-6)Gal(b1-4)GlcNAc
# In short: as §1
# Gal(b1-3)GlcNAc(b1-2)Man = target: Gal(b1-3)GlcNAc(b1-2)Man
# In short: as §1
# [18] = target: Gal(b1-3)GlcNAc(b1-2)Man(a1-3)[Gal(b1-3)GlcNAc(b1-2)Man(a1-6)]Man(b1-4)GlcNAc(b1-4)GlcNAc
# In short: as §1
# [19] = target: Gal(b1-3)GlcNAc(b1-2)Man(a1-3)[Gal(b1-3)GlcNAc(b1-2)Man(a1-6)]Man(b1-4)GlcNAc(b1-4)[Fuc(a1-6)]GlcNAc
# In short: as §1
# [20] = target: Gal(b1-3)GlcNAc(b1-2)Man(a1-3)[GlcNAc(b1-4)][Gal(b1-3)GlcNAc(b1-2)Man(a1-6)]Man(b1-4)GlcNAc(b1-4)GlcNAc
# In short: as §1
# [21] = target: Gal(b1-3)GlcNAc(b1-2)[Gal(b1-3)GlcNAc(b1-6)]Man(a1-6)[Gal(b1-3)GlcNAc(b1-2)Man(a1-3)]Man(b1-4)GlcNAc(b1-4)GlcNAc
# In short: as §1
# [22] = target: Gal(b1-3)GlcNAc(b1-3)Gal(b1-3)GlcNAc
# In short: as §1
# [23] = target: Gal(b1-3)GlcNAc(b1-3)Gal(b1-4)Glc
# In short: as §1
# [24] = target: Gal(b1-3)GlcNAc(b1-3)Gal(b1-4)GlcNAc
# In short: as §1
# [25] = target: Gal(b1-3)GlcNAc(b1-3)Gal(b1-4)GlcNAc(b1-2)Man(a1-3)[Gal(b1-3)GlcNAc(b1-3)Gal(b1-4)GlcNAc(b1-2)Man(a1-6)]Man(b1-4)GlcNAc(b1-4)GlcNAc
# In short: as §1
# [26] = target: Gal(b1-3)GlcNAc(b1-3)Gal(b1-4)GlcNAc(b1-2)[Gal(b1-3)GlcNAc(b1-3)Gal(b1-4)GlcNAc(b1-6)]Man(a1-6)[Gal(b1-3)GlcNAc(b1-3)Gal(b1-4)GlcNAc(b1-2)Man(a1-3)]Man(b1-4)GlcNAc(b1-4)[Fuc(a1-6)]GlcNAc
# In short: as §1
# [27] = target: Gal(b1-3)GlcNAc(b1-3)Gal(b1-4)GlcNAc(b1-3)Gal(b1-4)GlcNAc(b1-2)[Gal(b1-3)GlcNAc(b1-3)Gal(b1-4)GlcNAc(b1-3)Gal(b1-4)GlcNAc(b1-6)]Man(a1-6)[Gal(b1-3)GlcNAc(b1-3)Gal(b1-4)GlcNAc(b1-3)Gal(b1-4)GlcNAc(b1-2)Man(a1-3)]Man(b1-4)GlcNAc(b1-4)[Fuc(a1-6)]GlcNAc
# In short: as §1
# [28] = target: Gal(b1-3)GlcNAc(b1-3)Gal(b1-4)GlcNAc(b1-6)[Gal(b1-3)GlcNAc(b1-3)]Gal(b1-4)Glc
# In short: as §1
# [29] = target: Gal(b1-3)GlcNAc(b1-3)Gal(b1-4)[Fuc(a1-3)]GlcNAc
# In short: as §1
# [30] = target: Gal(b1-3)GlcNAc(b1-3)Gal(b1-4)[Fuc(a1-3)]GlcNAc(b1-6)[Gal(b1-3)GlcNAc(b1-3)]Gal(b1-4)Glc
# In short: as §1
# [31] = target: Gal(b1-3)GlcNAc(b1-3)GalNAc
# In short: as §1
# [32] = target: Gal(b1-3)GlcNAc(b1-6)Gal(b1-4)GlcNAc
# In short: as §1
binder,measurement,setting,value
B1,glycan array binding signal (z-score),Gal(a1-3)Gal(b1-4)GlcNAc,-0.379
same,glycan array binding signal (z-score),[1],-0.132
same,glycan array binding signal (z-score),[2],-0.317
same,glycan array binding signal (z-score),[3],0.632
same,glycan array binding signal (z-score),[4],-0.053
same,glycan array binding signal (z-score),[5],0.133
same,glycan array binding signal (z-score),[6],0.495
same,glycan array binding signal (z-score),Gal(a1-3)GalNAc,-0.413
same,glycan array binding signal (z-score),[7],0.029
same,glycan array binding signal (z-score),[8],0.84
same,glycan array binding signal (z-score),Gal(a1-4)Gal(b1-4)Glc,-0.569
same,glycan array binding signal (z-score),Gal(a1-4)Gal(b1-4)GlcNAc,-0.359
same,glycan array binding signal (z-score),[9],-0.149
same,glycan array binding signal (z-score),[10],-0.561
same,glycan array binding signal (z-score),Gal(a1-4)GlcNAc,-0.373
same,glycan array binding signal (z-score),Gal(a1-6)Glc,0.029
same,glycan array binding signal (z-score),Gal(b1-2)Gal,-0.494
same,glycan array binding signal (z-score),Gal(b1-3)Gal,-0.076
same,glycan array binding signal (z-score),Gal(b1-3)Gal(b1-4)GlcNAc,-0.269
same,glycan array binding signal (z-score),Gal(b1-3)GalNAc,-0.387
same,glycan array binding signal (z-score),[11],-0.209
same,glycan array binding signal (z-score),[12],0.081
same,glycan array binding signal (z-score),Gal(b1-3)GalNAc(b1-3)Gal,0.234
same,glycan array binding signal (z-score),[13],-0.491
same,glycan array binding signal (z-score),[14],-0.403
same,glycan array binding signal (z-score),[15],-0.254
same,glycan array binding signal (z-score),Gal(b1-3)GlcNAc,-0.282
same,glycan array binding signal (z-score),[16],-0.749
same,glycan array binding signal (z-score),[17],-0.32
same,glycan array binding signal (z-score),Gal(b1-3)GlcNAc(b1-2)Man,-0.187
same,glycan array binding signal (z-score),[18],-0.46
same,glycan array binding signal (z-score),[19],0.158
same,glycan array binding signal (z-score),[20],1.03
same,glycan array binding signal (z-score),[21],-0.593
same,glycan array binding signal (z-score),[22],-0.49
same,glycan array binding signal (z-score),[23],-0.282
same,glycan array binding signal (z-score),[24],-0.012
same,glycan array binding signal (z-score),[25],4.29
same,glycan array binding signal (z-score),[26],0.063
same,glycan array binding signal (z-score),[27],-0.204
same,glycan array binding signal (z-score),[28],-0.311
same,glycan array binding signal (z-score),[29],-0.331
same,glycan array binding signal (z-score),[30],0.154
same,glycan array binding signal (z-score),[31],0.226
same,glycan array binding signal (z-score),[32],-0.209

# Reference: the supplement of paper PMC8728848
